The whole screen tested about 48,000 compounds, of which about 1,200 (2.5%) were called active. Inconclusive results (about 2%) are left out.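 How the source made its calls: active means activation of at least 60% and not above a set upper limit (about 1 call in 100 departs from these limits); inconclusive means activation of 40% to 60%, or above that upper limit; inactive means activation under 40%.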 The list shows a part of the results.
biological target: Probable G-protein coupled receptor 32 (Homo sapiens) (UniProt O75388); test: qHTS for Agonists of Human Resolvin D1 Receptor DRV1; conditions: CHO-K1 GPR32 beta-arrestin PathHunter luminescence, 90 min; at 76.9 µM; stronger effect = higher value; zero percent set by DMSO-only wells; further: 0% is about no effect
Method in brief: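 Step 1: seed CHO-K1 GPR32 beta-arrestin cells, 2,500/well, overnight at 37 °C. Step 2: add compounds, 90 min at 37 °C. Step 3: detection reagent, 1 h ambient, then luminescence.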

Chain of UniProt O75388 (O75388 whole entry, looked up): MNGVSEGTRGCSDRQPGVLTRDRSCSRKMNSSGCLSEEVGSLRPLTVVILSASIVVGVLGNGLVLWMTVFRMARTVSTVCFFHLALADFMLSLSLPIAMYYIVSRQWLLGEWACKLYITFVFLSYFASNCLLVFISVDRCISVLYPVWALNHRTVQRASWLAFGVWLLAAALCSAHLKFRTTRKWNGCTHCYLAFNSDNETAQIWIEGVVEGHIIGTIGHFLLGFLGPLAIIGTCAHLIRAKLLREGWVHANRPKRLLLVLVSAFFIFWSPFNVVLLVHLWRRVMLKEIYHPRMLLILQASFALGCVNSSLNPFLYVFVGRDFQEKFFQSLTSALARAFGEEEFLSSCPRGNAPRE

activation, inactive:
Cc1nc(N=Nc2ccc(S(=O)(=O)O)cc2S(=O)(=O)O)c(COP(=O)(O)O)c(C=O)c1O 1.25%
Cc1ccc(O)c([C@H](CCN(C(C)C)C(C)C)c2ccccc2)c1 -5.53%
COC(=O)c1cc2oc3ccccc3c2n1CC(=O)Nc1ccc(N(C)C)cc1 2.17%
Cc1ccc(NC(=O)COc2ccc(-c3nn(C)c(=O)c4ccccc34)cc2)c(C)c1 -19.2%
Nc1c(-c2nc(-c3ccccc3Cl)no2)nnn1-c1ccccc1F 11.5%
Cn1cc(S(=O)(=O)N2CCCCC2)cc1C(=O)NCc1ccc(Cl)cc1 2.16%
CCC(=O)Nc1nnc(S(=O)(=O)N2CCCCCC2)s1 3.79%
COc1ccc(NC(=O)C(NS(=O)(=O)c2cccc3nsnc23)c2ccccc2)cc1 (centres undefined) -18.6%
CCOc1cc(-c2nnc(SCC(=O)NCCCOC)nc2-c2ccc(OC)c(OCC)c2)ccc1OC -11.5%
CCC(CC)c1nn2cc(-c3ccccc3)nc2s1 9.96%
CCCCSc1nnc2c(n1)OC(c1ccc(C)s1)Nc1ccccc1-2 (centres undefined) -23.3%
Cc1ccc(N2CCN(S(=O)(=O)c3cc(Br)cc4c3N(C(=O)C3CC3)CC4)CC2C)cc1 (centres undefined) -16.8%
CCCN(C(=O)c1cn(CC(C)C)c(=O)c2cc(OC)c(OC)cc12)c1cccc(C)c1 9.74%
COc1ccc(-c2cn3c(n2)sc2cc(C(=O)N4CCCCC4)ccc23)cc1 31.7%
CCCCC[C@H](CC(=O)NO)C(=O)N[C@H](C(=O)N1CCC[C@H]1CO)C(C)C -2.43%
CCS(=O)(=O)N1CC(=O)N(c2ccc(C)c(C)c2)C(C)(C(=O)NC2CCCCCC2)C1 (centres undefined) 4.46%
Cc1cc(S(=O)(=O)Nc2ccc3[nH]c(=O)sc3c2)ccc1F -1.07%
COc1ccc(N2CC(NC(=O)Cc3cccs3)CC2=O)cc1OC (centres undefined) -1.95%
COc1ccc(C2CC(=O)Oc3c2c(=O)n(C)c2ccccc32)c(OC)c1OC (centres undefined) 3.13%
O=C(COc1ccccc1)Nc1ccc2nc(SCC(=O)N3CCCC3)sc2c1 3.22%
CCOc1ccc(NC(=O)CS(=O)(=O)Cc2nc(-c3ccc(C)cc3)oc2C)cc1 -4.62%
Fc1ccc(N2CCN(c3ncnc4c3nc3n4CCCC3)CC2)cc1 19.8%
COc1ccc(OC)c2sc(N(CCCN(C)C)C(=O)c3ccco3)nc12 9.87%
CCCCOc1ccc(CC(=O)NO)cc1 25.3%

— PubChem BioAssay AID1346428 (National Center for Advancing Translational Sciences (NCATS), 2018)
